Data on 76 molecules can be found in PubChem BioAssay AID1865 (National Center for Advancing Translational Sciences (NCATS), 2009).

Screen size: about 280,000 compounds; about 540 (0.19%) were called active. Roughly 2% stayed inconclusive and do not appear here. The call rests on the fitted dose curve; in most records, active means well fitted activation curve with a large enough effect; inconclusive means small, poorly fitted or top-dose-only effect; inactive means flat fitted curve, though single readings scatter. The list shows a part of the results, in another mix than the full data.
Potency means the concentration at half of the fitted maximal effect.

The nature of the test: Quantitative High-Throughput Screen for Regulators of Epigenetic Control. Further: nearly all actives have a fitted effect of over 60% in size. On GFP activation: % of control where 0% means no effect. The following applies: murine LDR cells, GFP reporter derepression, 30 h; series mostly up to 53.9 µM; GFP activation: at the top concentration. A digest of the protocol: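 Reporter derepression read as number of fluorescent GFP-positive objects, 20-120 um in size, counted by laser-scanning cytometer. Mouse LDR line with an epigenetically silenced CMV-GFP locus; compound incubation 30 h, 37 C.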
On to `Cn1cc(C(=O)N/N=C/C(Br)=C\c2ccccc2)ccc1=O`, for which the “GFP activation” value was inactive: 6.76%. Still for that read-out and setting: for `O=C(Nc1nc(-c2cccs2)cs1)c1ccc(S(=O)(=O)N2CCCCC2)cc1` the value was inactive: 0%. Regarding `Cc1ccc(C(C)C)c(OCc2nnc(SCC(=O)Nc3ncc(C)s3)n2C)c1`, the “GFP activation” value was inactive: 0%. Still for that read-out and setting: the result for `CCOc1cc(/C=C2/C(=O)ON=C2C)ccc1OCc1ccccc1` reads inactive: -0.0837%; that for `CCCCCCCCCCCCCCC[C@H](O)[C@H](N)CO`, inactive: -0.144%; that for `Oc1c(I)cc(Cl)c2cccnc12`, inactive: -1.37% [at 16.9 µM].

As to `Nc1c(C(=O)Nc2ccc(S(=O)(=O)N3CCCC3)cc2)sc2nc3cc4c(cc3cc12)CCC4`, the Potency is active: 3.55 µM. For the molecule `CCC(C)NC(=O)CSc1nc2cc3c(cc2c(=O)n1Cc1ccc(C(=O)NCCc2ccc(OC)c(OC)c2)cc1)OCO3` (stereo unspecified), the Potency is active: 11.2 µM.

Regarding `CCOC(=O)CN1C(=O)N[C@@H](c2ccccc2)C(C(C)=O)=C1C`, the “GFP activation” value is inactive: -1.14%. Still for that read-out and setting: for `O=C(C1=C[C@H](c2coc3ccccc3c2=O)C[C@H](OCCCCO)O1)N1CCOCC1` the value was inactive: -0.819%; for `O=C(c1ccc2nc(N3CCCCC3)sc2c1)N1CCN(c2ccccn2)CC1`, inactive: 1.28%.

In the case of `Cn1cccc1/C=C1\CC(C(C)(C)C)C/C(=C\c2cccn2C)C1=O` (stereo unspecified), the Potency is active: 2.82 µM. The same measure, in the same setting: the result for `N#Cc1c(NC(=S)NC(=O)c2ccccc2)sc2c1CCN(CCc1ccccc1)C2` reads active: 5.62 µM; that for `O=C(Nc1ccccc1)c1cc([N+](=O)[O-])ccc1Cl`, “inactive”. On the same count and under the same terms, for `CSc1nsc(/C=C/Nc2ccc(F)cc2F)c1C#N` the value was active: 3.98 µM. On to `CC(=O)[C@@]1(O)CC[C@H]2[C@H]3C[C@@H](C)C4=CC(=O)C=C[C@]4(C)[C@@]3(F)[C@@H](O)C[C@]21C`, for which the “GFP activation” value is inactive: 0% [at 16.9 µM]. The same measure, in the same setting: for `CC(C)(C)CC(=O)N1CCC(c2nc3c(nnn3Cc3c(F)cccc3Cl)c(=O)[nH]2)CC1` the value was inactive: -8.16%.

Consider `COC(=O)C1(C(=O)OC)C/C=C\Cc2ccccc2[C@@H]1C[N+](=O)[O-]`, for which the Potency result is “inactive”. The same measure, in the same setting: the result for `COc1cc2nc3c(c([Si](C)(C)C(C)(C)C)c2cc1OC)Cn1c-3cccc1=O` reads active: 7.94 µM. Consider `COc1cccc2c1C(=O)c1c(O)c3c(c(O)c1C2=O)C[C@@](O)(C(=O)CO)C[C@@H]3O[C@H]1C[C@H](N)[C@H](O)[C@H](C)O1`, for which the “GFP activation” value was inactive: -0.027%. As for `COc1ccc(-c2cc(C(F)(F)F)c3c(n2)sc2c(O)cc(=O)[nH]c23)c(OC)c1`, the Potency is active: 11.2 µM. Regarding `O=C(Cn1c(=O)n(-c2ccccc2)c(=O)c2ccc(C(=O)NCc3ccc4c(c3)OCO4)cc21)Nc1ccc(Br)cc1`, the Potency is active: 15.8 µM.

For the molecule `O=C(N/N=C/C=C/c1ccco1)c1cccs1`, the Potency was active: 17.8 µM. On to `COc1cccc(-c2nnc(SCC(=O)OC(C)C)n2Cc2ccco2)c1`, for which the “GFP activation” value was inactive: 1.9%. The same measure, in the same setting: the result for `CC(=O)n1cc([C@H]2C=C(C(=O)N3CCN(Cc4ccc5c(c4)OCO5)CC3)O[C@@H](OCc3ccc(CO)cc3)C2)c2ccccc21` reads inactive: 2.26%; that for `O=C(N/N=C/C(Br)=C\c1ccccc1)c1cccs1`, inactive: 5.01%. Same read-out and setting: the result for `Cc1cc(Cl)ccc1OCC(=O)OC(C)C(=O)N(C)C` (stereo unspecified) reads inactive: -5.46%.

Consider `Cc1ccccc1CN1c2ccccc2-c2nc(SCC(=O)NCCc3ccccc3)ncc2S1(=O)=O`, for which the Potency was active: 22.4 µM. `Cc1cc(/C=C\c2ccc3cc(N(C)C)ccc3[n+]2C)c(C)n1-c1ccccc1`: the “GFP activation” value was inactive: 11.3% [at 16.9 µM]. In the case of `CCCc1nnc(NC(=O)CC(=O)OCC)s1`, the “GFP activation” value was inactive: 1.08%.

For the molecule `CN(c1ccccc1)c1ccc(/C=c2\s/c(=C(/C#N)C(=O)C(C)(C)C)n(Cc3ccco3)c2=O)cc1`, the Potency was active: 6.31 µM. The same measure, in the same setting: for `COc1ccccc1N1CCN(Cc2cc(COC(C)C)c3cccnc3c2O)CC1` the value was active: 3.55 µM. The same measure, in the same setting: for `COc1ccc2oc(=O)c(-c3nc4ccc(C)cc4[nH]3)cc2c1` the value was active: 11.2 µM. For the molecule `COc1ccccc1NC(=O)c1nnn(CC(=O)Nc2cccc(SC)c2)c1N`, the “GFP activation” value was inactive: -17.5%. The same measure, in the same setting: the result for `O=C1Cc2c([nH]c3ccc(Br)cc23)-c2ccccc2N1` reads inactive: 16.9%; that for `CCCCNC(=O)CCC(=O)NNc1nc2ccccc2c2nc(-c3ccccc3)nn12`, inactive: -1.11%; that for `CC(=O)Nc1cc(C(F)(F)F)ccc1OCC1CCCO1` (stereo unspecified), inactive: -3.37%. The same measure, in the same setting: the result for `CN1CCN(S(=O)(=O)c2ccc(N(C)CC(=O)Nc3ccc(F)cc3)nc2)CC1` reads inactive: -7.78%. In the case of `N#C/C(=C/c1ccc(N2CCOCC2)o1)c1nc2ccccc2[nH]1`, the Potency is active: 15.8 µM. Same read-out and setting: the result for `CC1CCN(S(=O)(=O)c2nnc(NC(=O)c3cccc(F)c3)s2)CC1` reads active: 12.6 µM; that for `Cc1cccc(NC(=O)CSc2nc(-c3cccs3)cc(C(F)(F)F)c2C#N)c1`, active: 14.1 µM. With `CCCCN(c1ccccc1)S(=O)(=O)c1ccc2c(c1)CCN2C(=O)CCC(=O)O`, the “GFP activation” value is inactive: -15.2%. The same measure, in the same setting: for `Cc1ccc2nc(NCCCNC(=O)c3cnccn3)c(C#N)cc2c1` the value was inactive: -7.69%. Turning to `COc1ccc(-n2c(C)cc(/C=C3\SC(=S)NC3=O)c2C)cc1`, the Potency was active: 25.1 µM.

With `CC(C)(C)OC(=O)NCCc1nnc(SCC(N)=O)o1`, the “GFP activation” value is inactive: -5.26%.

On to `Cc1ccc(-n2c(=O)c3ccc(C(=O)NCc4ccco4)cc3n(Cc3ccccc3C#N)c2=O)cc1`, for which the “GFP activation” value is inactive: 14.9%. With `CCN1CCN(c2c(/C=C3\SC(=S)N(Cc4ccco4)C3=O)c(C)c(C#N)c(=O)n2C)CC1`, the Potency is active: 7.08 µM. For `CC1=C(C(=O)N2CCCCC2)C(c2cccs2)C2=C(CCCC2=O)N1` (stereo unspecified), the “GFP activation” value was inactive: -6.35%. Still for that read-out and setting: for `Cc1ccc(Cn2nnc3c(=O)n(CC(=O)c4ccccc4)cnc32)cc1` the value was inactive: 2.56%. In the case of `COc1ccccc1-[n+]1c(C)cc(/C=C2\Sc3ccccc3N2C)cc1C`, the Potency was active: 7.94 µM.

As for `COc1cccc(OCCOCCN(C)CCO)c1`, the “GFP activation” value was inactive: -15.9%. Same read-out and setting: for `COc1ccc(-n2cc(-c3ccccc3)c3c(N4CCN(CCO)CC4)ncnc32)cc1` the value was inactive: 0%. In the case of `N#Cc1c(-c2ccc(F)cc2)cc(C2CC2)nc1SCC(=O)c1cccs1`, the Potency is active: 10 µM. Turning to `CN(C)c1ccc(CN(C(=O)C2COc3ccccc3O2)C2CCS(=O)(=O)C2)cc1` (stereo unspecified), the “GFP activation” value was inactive: 4.14%. On the same count and under the same terms, the result for `CCCOCC(O)COc1ccccc1C(=O)N1CCOCC1` (stereo unspecified) reads inactive: -6.29%; that for `COc1cc(COc2cc(N)c(Cl)cc2C(=O)CCC2CCN(CCNS(C)(=O)=O)CC2)cc(OC)c1`, inactive: 11.1%. As for `Cc1nonc1NC(=O)CSc1nc2c(C)cccc2cc1C#N`, the Potency is active: 15.8 µM. Still for that read-out and setting: for `N#C/C(=C\c1ccc([N+](=O)[O-])o1)c1nc2ccccc2[nH]1` the value was active: 2.82 µM; for `CCCCC/C=C/C=C1/C(=O)C=C[C@@H]1C/C=C\CCCC(=O)O`, “inactive”. Take `Nc1c2ccccc2nc2ccccc12`: the “GFP activation” value was inactive: 0%. Same read-out and setting: for `COC(=O)C1CCN(C(=O)c2sc3nc(-c4ccc(F)cc4)cn3c2C)CC1` the value was inactive: -12.1%. Consider `CCN(c1ccc(N=Cc2c(O)n(Cc3ccc(OC)cc3)c(=O)c3ccccc23)cc1)C(C)C`, for which the Potency is active: 2 µM. On the same count and under the same terms, for `CCc1cccc2cc3c(N)c(C(=O)Nc4ccc(S(=O)(=O)N5CCCC5)cc4)sc3nc12` the value was active: 11.2 µM; for `COc1cccc2c1C(=O)c1c(O)c3c(c(O)c1C2=O)C[C@@](O)(C(C)=O)C[C@@H]3O[C@H]1C[C@H](N)[C@H](O)[C@H](C)O1`, “inactive”. As for `COC(=O)C(NC(C)=O)(Nc1nc2ccc(S(C)(=O)=O)cc2s1)C(F)(F)F` (stereo unspecified), the “GFP activation” value was inactive: -8.62%.

Consider `Cc1sc2nc(SCC(=O)NCc3ccco3)n(CCc3ccccc3)c(=O)c2c1C`, for which the “GFP activation” value is inactive: -14.3%.

`COc1cc(/C=C2/CC/C(=C/c3ccc(O)c(OC)c3)C2=O)ccc1O`: the Potency was active: 25.1 µM. `O=C(C1=C[C@H](c2csc3ccccc23)C[C@H](OCc2ccc(CO)cc2)O1)N1CCN(Cc2ccccc2)CC1`: the “GFP activation” value was inactive: 13.8%. For the molecule `Cc1ccc(-n2c(SCC(=O)N3CCOCC3)nnc2-c2ccncc2)cc1`, the “GFP activation” value was inactive: 1.28%. On the same count and under the same terms, the result for `COC(=O)c1c(C)[nH]c(C(=O)OCc2ccc(F)cc2)c1C` reads inactive: -10.8%; that for `CCOc1ccc(-n2c(SCC(=O)Nc3nccs3)nc3c(c2=O)SCC3)cc1`, inactive: 0.381%; that for `COc1ccccc1CNC(=O)C(C)NS(=O)(=O)c1ccccc1` (stereo unspecified), inactive: -15.9%. Same read-out and setting: for `Cc1cc2n(n1)C(c1sccc1C)Nc1c(C)cccc1-2` (stereo unspecified) the value was inactive: -1.9%; for `O=C1Nc2ccccc2OC1CC(=O)N1CCCC1` (stereo unspecified), inactive: -0.901%. As to `Cc1ccc(-c2noc(-c3ccccc3NC(=O)C3CC(=O)N(c4cccc(C)c4)C3)n2)cc1` (stereo unspecified), the Potency is active: 15.8 µM. For the molecule `CCC1S/C(=C(\C#N)C(=O)NCc2ccco2)N(c2ccc(F)cc2)C1=O` (stereo unspecified), the “GFP activation” value was inactive: -16.6%.
